Laboratory results as given in the supplement of paper PMC12423691.
The other results are listed elsewhere or left out. Binding of human transcription factors and regulators to the viral nucleoprotein by AlphaScreen, crude cell-free proteins, amounts not normalised, one pass. Fold of the Venus control; higher = more signal. No active / inactive call. Single-pass screen; sequences are the whole Swiss-Prot entries looked up by name.

B1: FOXO4, P98177 (protein)
chain: MDPGNENSATEAAAIIDLDPDFEPQSRPRSCTWPLPRPEIANQPSEPPEVEPDLGEKVHTEGRSEPILLPSRLPEPAGGPQPGILGAVTGPRKGGSRRNAWGNQSYAELISQAIESAPEKRLTLAQIYEWMVRTVPYFKDKGDSNSSAGWKNSIRHNLSLHSKFIKVHNEATGKSSWWMLNPEGGKSGKAPRRRAASMDSSSKLLRGRSKAPKKKPSVLPAPPEGATPTSPVGHFAKWSGSPCSRNREEADMWTTFRPRSSSNASSVSTRLSPLRPESEVLAEEIPASVSSYAGGVPPTLNEGLELLDGLNLTSSHSLLSRSGLSGFSLQHPGVTGPLHTYSSSLFSPAEGPLSAGEGCFSSSQALEALLTSDTPPPPADVLMTQVDPILSQAPTLLLLGGLPSSSKLATGVGLCPKPLEAPGPSSLVPTLSMIAPPPVMASAPIPKALGTPVLTPPTEAASQDRMPQDLDLDMYMENLECDMDNIISDLMDEGEGLDFNFEPDP
B2: SKIL, P12757 (protein)
chain: MENLQTNFSLVQGSTKKLNGMGDDGSPPAKKMITDIHANGKTINKVPTVKKEHLDDYGEAPVETDGEHVKRTCTSVPETLHLNPSLKHTLAQFHLSSQSSLGGPAAFSARHSQESMSPTVFLPLPSPQVLPGPLLIPSDSSTELTQTVLEGESISCFQVGGEKRLCLPQVLNSVLREFTLQQINTVCDELYIYCSRCTSDQLHILKVLGILPFNAPSCGLITLTDAQRLCNALLRPRTFPQNGSVLPAKSSLAQLKETGSAFEVEHECLGKCQGLFAPQFYVQPDAPCIQCLECCGMFAPQTFVMHSHRSPDKRTCHWGFESAKWHCYLHVNQKYLGTPEEKKLKIILEEMKEKFSMRSGKRNQSKTDAPSGMELQSWYPVIKQEGDHVSQTHSFLHPSYYLYMCDKVVAPNVSLTSAVSQSKELTKTEASKSISRQSEKAHSSGKLQKTVSYPDVSLEEQEKMDLKTSRELCSRLDASISNNSTSKRKSESATCNLVRDINKVGIGLVAAASSPLLVKDVICEDDKGKIMEEVMRTYLKQQEKLNLILQKKQQLQMEVKMLSSSKSMKELTEEQQNLQKELESLQNEHAQRMEEFYVEQKDLEKKLEQIMKQKCTCDSNLEKDKEAEYAGQLAELRQRLDHAEADRQELQDELRQEREARQKLEMMIKELKLQILKSSKTAKE
B3: RELB, Q01201 (protein)
chain: MLRSGPASGPSVPTGRAMPSRRVARPPAAPELGALGSPDLSSLSLAVSRSTDELEIIDEYIKENGFGLDGGQPGPGEGLPRLVSRGAASLSTVTLGPVAPPATPPPWGCPLGRLVSPAPGPGPQPHLVITEQPKQRGMRFRYECEGRSAGSILGESSTEASKTLPAIELRDCGGLREVEVTACLVWKDWPHRVHPHSLVGKDCTDGICRVRLRPHVSPRHSFNNLGIQCVRKKEIEAAIERKIQLGIDPYNAGSLKNHQEVDMNVVRICFQASYRDQQGQMRRMDPVLSEPVYDKKSTNTSELRICRINKESGPCTGGEELYLLCDKVQKEDISVVFSRASWEGRADFSQADVHRQIAIVFKTPPYEDLEIVEPVTVNVFLQRLTDGVCSEPLPFTYLPRDHDSYGVDKKRKRGMPDVLGELNSSDPHGIESKRRKKKPAILDHFLPNHGSGPFLPPSALLPDPDFFSGTVSLPGLEPPGGPDLLDDGFAYDPTAPTLFTMLDLLPPAPPHASAVVCSGGAGAVVGETPGPEPLTLDSYQAPGPGDGGTASLVGSNMFPNHYREAAFGGGLLSPGPEAT
B4: TFEB, P19484 (protein)
chain: MASRIGLRMQLMREQAQQEEQRERMQQQAVMHYMQQQQQQQQQQLGGPPTPAINTPVHFQSPPPVPGEVLKVQSYLENPTSYHLQQSQHQKVREYLSETYGNKFAAHISPAQGSPKPPPAASPGVRAGHVLSSSAGNSAPNSPMAMLHIGSNPERELDDVIDNIMRLDDVLGYINPEMQMPNTLPLSSSHLNVYSSDPQVTASLVGVTSSSCPADLTQKRELTDAESRALAKERQKKDNHNLIERRRRFNINDRIKELGMLIPKANDLDVRWNKGTILKASVDYIRRMQKDLQKSRELENHSRRLEMTNKQLWLRIQELEMQARVHGLPTTSPSGMNMAELAQQVVKQELPSEEGPGEALMLGAEVPDPEPLPALPPQAPLPLPTQPPSPFHHLDFSHSLSFGGREDEGPPGYPEPLAPGHGSPFPSLSKKDLDLMLLDDSLLPLASDPLLSTMSPEASKASSRRSSFSMEEGDVL
B5: CMKLR1, Q99788 (protein)
chain: MRMEDEDYNTSISYGDEYPDYLDSIVVLEDLSPLEARVTRIFLVVVYSIVCFLGILGNGLVIIIATFKMKKTVNMVWFLNLAVADFLFNVFLPIHITYAAMDYHWVFGTAMCKISNFLLIHNMFTSVFLLTIISSDRCISVLLPVWSQNHRSVRLAYMACMVIWVLAFFLSSPSLVFRDTANLHGKISCFNNFSLSTPGSSSWPTHSQMDPVGYSRHMVVTVTRFLCGFLVPVLIITACYLTIVCKLQRNRLAKTKKPFKIIVTIIITFFLCWCPYHTLNLLELHHTAMPGSVFSLGLPLATALAIANSCMNPILYVFMGQDFKKFKVALFSRLVNALSEDTGHSSYPSHRSFTKMSSMNERTSMNERETGML
B6: ETV6, P41212 (protein)
chain: MSETPAQCSIKQERISYTPPESPVPSYASSTPLHVPVPRALRMEEDSIRLPAHLRLQPIYWSRDDVAQWLKWAENEFSLRPIDSNTFEMNGKALLLLTKEDFRYRSPHSGDVLYELLQHILKQRKPRILFSPFFHPGNSIHTQPEVILHQNHEEDNCVQRTPRPSVDNVHHNPPTIELLHRSRSPITTNHRPSPDPEQRPLRSPLDNMIRRLSPAERAQGPRPHQENNHQESYPLSVSPMENNHCPASSESHPKPSSPRQESTRVIQLMPSPIMHPLILNPRHSVDFKQSRLSEDGLHREGKPINLSHREDLAYMNHIMVSVSPPEEHAMPIGRIADCRLLWDYVYQLLSDSRYENFIRWEDKESKIFRIVDPNGLARLWGNHKNRTNMTYEKMSRALRHYYKLNIIRKEPGQRLLFRFMKTPDEIMSGRTDRLEHLESQELDEQIYQEDEC
B7: TNFSF18, Q9UNG2 (protein)
chain: MCLSHLENMPLSHSRTQGAQRSSWKLWLFCSIVMLLFLCSFSWLIFIFLQLETAKEPCMAKFGPLPSKWQMASSEPPCVNKVSDWKLEILQNGLYLIYGQVAPNANYNDVAPFEVRLYKNKDMIQTLTNKSKIQNVGGTYELHVGDTIDLIFNSEHQVLKNNTYWGIILLANPQFIS
B8: IRF7, Q92985 (protein)
chain: MALAPERAAPRVLFGEWLLGEISSGCYEGLQWLDEARTCFRVPWKHFARKDLSEADARIFKAWAVARGRWPPSSRGGGPPPEAETAERAGWKTNFRCALRSTRRFVMLRDNSGDPADPHKVYALSRELCWREGPGTDQTEAEAPAAVPPPQGGPPGPFLAHTHAGLQAPGPLPAPAGDKGDLLLQAVQQSCLADHLLTASWGADPVPTKAPGEGQEGLPLTGACAGGPGLPAGELYGWAVETTPSPGPQPAALTTGEAAAPESPHQAEPYLSPSPSACTAVQEPSPGALDVTIMYKGRTVLQKVVGHPSCTFLYGPPDPAVRATDPQQVAFPSPAELPDQKQLRYTEELLRHVAPGLHLELRGPQLWARRMGKCKVYWEVGGPPGSASPSTPACLLPRNCDTPIFDFRVFFQELVEFRARQRRGSPRYTIYLGFGQDLSAGRPKEKSLVLVKLEPWLCRVHLEGTQREGVSSLDSSSLSLCLSSANSLYDDIECFLMELEQPA
B9: NR1D2, Q14995 (protein)
chain: MEVNAGGVIAYISSSSSASSPASCHSEGSENSFQSSSSSVPSSPNSSNSDTNGNPKNGDLANIEGILKNDRIDCSMKTSKSSAPGMTKSHSGVTKFSGMVLLCKVCGDVASGFHYGVHACEGCKGFFRRSIQQNIQYKKCLKNENCSIMRMNRNRCQQCRFKKCLSVGMSRDAVRFGRIPKREKQRMLIEMQSAMKTMMNSQFSGHLQNDTLVEHHEQTALPAQEQLRPKPQLEQENIKSSSPPSSDFAKEEVIGMVTRAHKDTFMYNQEQQENSAESMQPQRGERIPKNMEQYNLNHDHCGNGLSSHFPCSESQQHLNGQFKGRNIMHYPNGHAICIANGHCMNFSNAYTQRVCDRVPIDGFSQNENKNSYLCNTGGRMHLVCPMSKSPYVDPHKSGHEIWEEFSMSFTPAVKEVVEFAKRIPGFRDLSQHDQVNLLKAGTFEVLMVRFASLFDAKERTVTFLSGKKYSVDDLHSMGAGDLLNSMFEFSEKLNALQLSDEEMSLFTAVVLVSADRSGIENVNSVEALQETLIRALRTLIMKNHPNEASIFTKLLLKLPDLRSLNNMHSEELLAFKVHP
B10: ZC3H12A, Q5D1E8 (protein)
chain: MSGPCGEKPVLEASPTMSLWEFEDSHSRQGTPRPGQELAAEEASALELQMKVDFFRKLGYSSTEIHSVLQKLGVQADTNTVLGELVKHGTATERERQTSPDPCPQLPLVPRGGGTPKAPNLEPPLPEEEKEGSDLRPVVIDGSNVAMSHGNKEVFSCRGILLAVNWFLERGHTDITVFVPSWRKEQPRPDVPITDQHILRELEKKKILVFTPSRRVGGKRVVCYDDRFIVKLAYESDGIVVSNDTYRDLQGERQEWKRFIEERLLMYSFVNDKFMPPDDPLGRHGPSLDNFLRKKPLTLEHRKQPCPYGRKCTYGIKCRFFHPERPSCPQRSVADELRANALLSPPRAPSKDKNGRRPSPSSQSSSLLTESEQCSLDGKKLGAQASPGSRQEGLTQTYAPSGRSLAPSGGSGSSFGPTDWLPQTLDSLPYVSQDCLDSGIGSLESQMSELWGVRGGGPGEPGPPRAPYTGYSPYGSELPATAAFSAFGRAMGAGHFSVPADYPPAPPAFPPREYWSEPYPLPPPTSVLQEPPVQSPGAGRSPWGRAGSLAKEQASVYTKLCGVFPPHLVEAVMGRFPQLLDPQQLAAEILSYKSQHPSE

The binders below were run against nucleoprotein N of Crimean-Congo hemorrhagic fever virus (assay: AlphaScreen luminescence signal relative to Venus negative control (fold); higher = stronger binding to CCHFV N).
Experimental: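 AlphaScreen binding of cell-free made, FLAG-GST-tagged human transcription factors and regulators (crude translation products) to biotinylated N protein; signal as fold of the FLAG-GST-Venus control. One pass.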

For B1, which AlphaScreen luminescence signal is on record?
The AlphaScreen luminescence signal was 5.02.

B2 was tested. Which AlphaScreen luminescence signal did it give?
Its AlphaScreen luminescence signal is 1.81.

B3 was tested. Which AlphaScreen luminescence signal did it give?
The AlphaScreen luminescence signal was 1.72.

How did the AlphaScreen luminescence signal turn out when B4 was run?
Its AlphaScreen luminescence signal is 2.7.

With B5 as the binder, how does the AlphaScreen luminescence signal read?
Its AlphaScreen luminescence signal is 3.86.

How did the AlphaScreen luminescence signal turn out when B6 was run?
The AlphaScreen luminescence signal was 2.23.

How did the AlphaScreen luminescence signal turn out when B7 was run?
The AlphaScreen luminescence signal was 2.28.

For B8, which AlphaScreen luminescence signal is on record?
Its AlphaScreen luminescence signal is 2.33.

How did the AlphaScreen luminescence signal turn out when B9 was run?
Its AlphaScreen luminescence signal is 1.86.

How did the AlphaScreen luminescence signal turn out when B10 was run?
Its AlphaScreen luminescence signal is 5.91.
